# Source: the domain aggregation screens of Martell et al. (2025)
# Test: soluble fraction after stress (log2 fold change); higher = more stays soluble; pooled small domains, quantitative proteomics
# Details: stress: 50 degC
# Procedure, shortened: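 Pooled custom libraries of small protein domains were measured in a high-throughput format, with quantitative proteomics as the read-out. Each library was stressed at 50°C. Aggregation propensity is given as the base-two logarithm of the fold change in how much of each protein stays soluble after the stress. Higher values mean a larger share of the protein remains in solution.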
row,Sequence,soluble fraction (log2)
1,HMGGKYKPLILWHLIEGTKRFSALQRLLPQATPRMLTMNLRELESDGLVHRKVYPEVPPKTEYSLSDLGK,-0.319
2,HMEVITIENEDAFTEGRAFAHSEGILVGISSGAALKAATILAERPENKGKTIVALLPDSGDRYLSTALFA,0.042
